This assay deals with Plasmodium falciparum NF54 stage V gametocytes. In words: viability index relative to DMSO control (fraction); higher = less gametocyte killing. To be noted: 2.5 µM, library set: Broad Institute DOS, incubation time: 72 h. The method, then: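 Broad DOS informer set and blood-stage-active DOS compounds screened in duplicate at 2.5 µM against P. falciparum NF54 stage V gametocytes with the serum-free one-step SaLSSA (1536-well): 72 h at 37 °C under low oxygen, then saponin lysis and MitoTracker Red CMXRos staining, with high-content imaging. Viability index = viable-object count divided by the plate mean of DMSO wells (0 = killed, about 1 = inactive).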

± gives the uncertainty stated by the source. Over roughly 9,900 compounds, “viability index relative to DMSO control” has its median near 1; the lowest 2% begin near 0.85. Some of the results follow.

In turn, `O=C(C[C@H]1CC[C@H]2NC[C@H](O)COC[C@@H]2O1)NCCN1CCCCC1` yielded a viability index of 0.966 ± 0.15. `CCCNC(=O)N1CC[C@@]2(CC1)CN(Cc1ccccn1)[C@H](CO)c1c2c2ccc(OC)cc2n1C` gave a viability index of 1 ± 0.016. Regarding `C[C@@H]1CN([C@H](C)CO)C(=O)c2cc(NC(=O)C3CCCCC3)ccc2O[C@@H]1CN(C)Cc1ccc2c(c1)OCO2`, the viability index was 1.05 ± 0.082. For `C[C@@H]1CN([C@@H](C)CO)S(=O)(=O)c2ccc(C#Cc3cccc(F)c3)cc2O[C@@H]1CN(C)S(=O)(=O)c1cn(C)cn1` the value was 0.9512 ± 0.0018. As for `CCCNC(=O)N[C@@H]1C=C[C@H](CC(=O)N2CCN(C)CC2)O[C@H]1CO`, the viability index came to 0.944 ± 0.021. `COc1ccc(NC(=O)N(C)C[C@@H]2OCc3ccccc3-c3ccccc3C(=O)N([C@@H](C)CO)C[C@H]2C)c(OC)c1`: the viability index was determined as 0.927 ± 0.026. Under `CCS(=O)(=O)Nc1ccc2c(c1)C(=O)N(C)[C@H]1CC[C@H](CC(=O)N[C@@H]3CCN(Cc4ccccc4)C3)O[C@@H]1CO2` stands 1.12 ± 0.12; under `COc1ccc2c3c([C@@H](CO)NC[C@]33CCN(Cc4cc(F)ccc4F)CC3)n(C)c2c1`, 0.973 ± 0.026.

Take `CN1C(=O)c2cc(NC(=O)c3cnccn3)ccc2OC[C@@H]2O[C@H](CC(=O)NCC3CCCCC3)CC[C@H]21`: the viability index came to 0.999 ± 0.11. Take `CS(=O)(=O)Nc1ccc2c(c1)[C@@H]1C[C@@H](CC(=O)NCCc3ccccc3)O[C@H](CO)[C@@H]1O2`: the viability index amounted to 1.01 ± 0.0053. For `C[C@@H]1CN([C@H](C)CO)S(=O)(=O)c2ccc(C#CC(C)(C)O)cc2O[C@@H]1CN(C)Cc1ccc(F)cc1` the value was 0.969 ± 0.051; for `COc1ccccc1CN1[C@H](CO)[C@@H]2c3ccccc3N(C(=O)C3CCOCC3)C[C@@H]21`, 1.07 ± 0.033. With `CO[C@@H]1CN(C)C(=O)c2ccc(NC(=O)c3cccc(F)c3)cc2OC[C@@H](C)NC[C@H]1C`, the viability index amounted to 1.09 ± 0.072. Under `COc1ccc(S(=O)(=O)N(C)C[C@H]2OCCCC[C@H](C)Oc3ccc(NC(=O)Cc4ccccc4)cc3C(=O)N([C@H](C)CO)C[C@@H]2C)cc1` stands 0.994 ± 0.022; under `O=C(CCN1CCCCC1)N[C@H]1CC[C@@H](CC(=O)N2CCC(Cc3ccccc3)CC2)O[C@H]1CO`, 0.956 ± 0.035; under `COc1ccc(C[C@@H]2CCn3cc(nn3)COC[C@H](C)NC2=O)cc1`, 1.102 ± 0.0077.

As for `CC(=O)N1C[C@@H]2N[C@H](C1)[C@H]2c1ccc(-c2ccccc2)cc1`, the viability index is 1.11 ± 0.016. Under `COc1ccc(CNC(=O)C[C@H]2C=C[C@H](NC(=O)c3cccc(F)c3)[C@@H](CO)O2)cc1` stands 0.94 ± 0.062; under `C[C@@H]1CN([C@@H](C)CO)C(=O)c2c(c3ccccc3n2C)-c2ccccc2CO[C@H]1CN(C)C(=O)[C@@H]1CCCN1C`, 0.983 ± 0.013; under `COc1ccccc1-c1ccc([C@@H]2[C@@H](CO)N3CCCCN(C(=O)c4cccnc4)C[C@H]23)cc1`, 1.02 ± 0.05. Under `CCCNC[C@@H]1[C@@H](c2ccc(C3=CCCCC3)cc2)[C@@H](CO)N1C(=O)C1CCC1` stands 1.033 ± 0.01; under `C[C@@H]1COCn2nncc2CC[C@H](Cc2ccc(-c3ccccc3)cc2)C(=O)N1`, 1.01 ± 0.029. Turning to `CCN1[C@@H]2c3ccc(-c4ccc(F)cc4)c(=O)n3C[C@H]1[C@H](CO)[C@H]2C(=O)Nc1nccs1`, the viability index came to 0.977 ± 0.069.

With `CC(=O)N1[C@@H](CO)[C@@H](c2ccccc2)[C@@H]1CNC(=O)CN1CCOCC1`, the viability index was determined as 1.01 ± 0.049.

The compound `C[C@H]1CN([C@@H](C)CO)C(=O)c2cc(NS(=O)(=O)c3cccs3)ccc2O[C@H]1CN(C)S(=O)(=O)c1ccc(Cl)cc1` gave a viability index of 0.94 ± 0.062. In the case of `COc1ccc(CN(C)C[C@@H]2Oc3ccc(NC(=O)Nc4ccc5c(c4)OCO5)cc3CC(=O)N([C@@H](C)CO)C[C@H]2C)cc1`, the viability index was determined as 0.918 ± 0.026. In the case of `CCC(=O)N1Cc2cc(C(=O)Nc3nccs3)nc(-c3cccc(-c4ccccc4OC)c3)c2[C@H]1CCO`, the viability index came out at 0.9756 ± 0.001. Compound `O=C(C[C@H]1CC[C@@H](NC(=O)c2cccnc2)[C@H](CO)O1)NCc1ccc(Cl)c(Cl)c1` yielded a viability index of 0.993 ± 0.055. `CN1C(=O)c2cc(NC(=O)c3cccc(F)c3)ccc2OC[C@H]2O[C@H](CC(=O)NCc3ccccc3Cl)CC[C@@H]21` gave a viability index of 0.944 ± 0.061. For `N#C[C@H]1[C@@H](c2ccccc2C2=CCCCC2)[C@@H](CO)N1C(=O)Nc1ccccc1F` the value was 1.16 ± 0.039. In turn, `CCCNC(=O)Nc1ccc2c(c1)OC[C@@H](C)N(Cc1cncnc1)C[C@@H](C)[C@H](OC)CN(C)C2=O` had a viability index of 1.03 ± 0.044.

For the compound `CNC(=O)C[C@H]1CC[C@@H]2[C@H](COc3ccc(NS(=O)(=O)c4ccc(F)cc4)cc3C(=O)N2C)O1`, the viability index worked out at 1.101 ± 0.01. Compound `COc1ccc2c3c([nH]c2c1)[C@H](CO)N(C[C@]31CN(Cc2cc(on2)-c2ccccc2)C1)C(=O)Nc1ccc(F)cc1` showed a viability index of 1.08 ± 0.067. `CCC(=O)N1CC[C@@H]2[C@@H](CO)Nc3ccc(C#Cc4ccccc4F)cc3[C@@H]21` came in with a viability index of 1.06 ± 0.034. In turn, `COCC(=O)Nc1ccc2c(c1)[C@@H]1C[C@@H](CC(=O)N3CCOCC3)O[C@H](CO)[C@@H]1O2` yielded a viability index of 1.1 ± 0.045.

The record behind these values is the supplement of paper PMC4723716.
